# PMC4336329 (PLoS ONE, 2015)
# The whole screen tested about 310,000 compounds, of which about 2,200 (0.71%) showed an effect of 50% or more. The effect is printed as a negative number. This is one part of the list.
# Target: human ether-à-go-go-related gene (hERG) potassium channel (human, UniProt Q12809)
# Experiment: primary screen, population patch clamp on CHO cells stably expressing hERG
# human ether-à-go-go-related gene (hERG) potassium channel, sequence (Q12809 whole entry, looked up): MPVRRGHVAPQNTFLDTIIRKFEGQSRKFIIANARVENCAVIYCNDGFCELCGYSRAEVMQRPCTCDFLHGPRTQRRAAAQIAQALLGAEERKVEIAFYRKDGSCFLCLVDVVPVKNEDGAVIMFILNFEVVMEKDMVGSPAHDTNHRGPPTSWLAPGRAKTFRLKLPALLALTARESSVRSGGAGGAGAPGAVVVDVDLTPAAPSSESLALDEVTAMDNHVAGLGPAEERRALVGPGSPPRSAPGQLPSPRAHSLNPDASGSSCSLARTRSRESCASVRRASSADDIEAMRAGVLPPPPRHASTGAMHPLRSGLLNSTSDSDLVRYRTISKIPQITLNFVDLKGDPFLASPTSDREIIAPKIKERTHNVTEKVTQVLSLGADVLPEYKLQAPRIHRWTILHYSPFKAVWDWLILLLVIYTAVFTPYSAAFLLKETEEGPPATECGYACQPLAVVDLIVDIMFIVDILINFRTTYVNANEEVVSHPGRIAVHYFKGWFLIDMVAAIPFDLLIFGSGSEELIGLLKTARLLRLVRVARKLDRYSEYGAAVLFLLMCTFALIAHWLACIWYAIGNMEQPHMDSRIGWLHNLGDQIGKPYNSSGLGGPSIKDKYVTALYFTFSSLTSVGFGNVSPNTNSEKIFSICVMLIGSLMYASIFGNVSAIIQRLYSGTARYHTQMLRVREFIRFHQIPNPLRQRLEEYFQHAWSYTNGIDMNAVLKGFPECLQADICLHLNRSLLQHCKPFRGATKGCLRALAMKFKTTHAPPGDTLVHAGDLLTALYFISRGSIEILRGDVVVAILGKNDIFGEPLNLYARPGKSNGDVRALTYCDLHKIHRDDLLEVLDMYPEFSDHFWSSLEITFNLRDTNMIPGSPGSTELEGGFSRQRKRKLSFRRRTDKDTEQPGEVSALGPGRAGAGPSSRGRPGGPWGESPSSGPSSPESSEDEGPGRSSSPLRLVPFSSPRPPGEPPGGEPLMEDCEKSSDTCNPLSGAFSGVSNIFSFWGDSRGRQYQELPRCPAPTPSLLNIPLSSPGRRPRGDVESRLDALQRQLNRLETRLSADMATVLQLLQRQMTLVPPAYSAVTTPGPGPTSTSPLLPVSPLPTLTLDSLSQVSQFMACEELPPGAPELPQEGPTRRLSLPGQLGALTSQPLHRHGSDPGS
row,SMILES,"hERG current change (%, negative = inhibition) at 1uM [%]"
1,CCN(CC)c1ccc(N=Cc2c(O)n(Cc3ccccc3)c(=O)[nH]c2=O)cc1 [14729657],5.11
2,O=C(NC1(C(F)(F)F)NC(=O)N(CCc2ccccc2)C1=O)C1CC1 (stereo not drawn),4.33
3,O=C(N1CCCC1)C12CC3CC(C1)CC(C(=O)N1CCCC1)(C3)C2,9.6
4,CC(Oc1ccc(Cl)cc1Cl)C(=O)NCCC1=CCCCC1 (stereo not drawn),4.75
5,COc1ccc(Cc2nnc(N)s2)cc1,12.3
6,CC(C)C(=O)Nc1ccc(NC(=O)c2ccc3c(c2)OCO3)cc1,9
7,CC(C)(C)NS(=O)(=O)c1ccc2c(c1)oc(=O)c1cc(S(=O)(=O)NC(C)(C)C)ccc12,11.3
8,CSCc1ccc(C(=O)Nc2cccc(C)c2C)cc1,-0.605
9,O=C(NCCO)C1CCN(S(=O)(=O)c2ccc(F)cc2)CC1,5.41
10,CCOCCCNC(=O)CCNC(=O)c1cc(OC)c(OC)c(OC)c1,-2.31
11,CCC(C)Sc1ccc(-c2nc3ccc(C)cn3c2NCc2ccccc2)cc1OC.O=C(O)C(F)(F)F (stereo not drawn),10.2
12,Cc1cccc2sc(NC(=O)c3ccc(NS(=O)(=O)c4cccs4)cc3)nc12,-0.227
13,COc1cccc(-c2cc(C(F)(F)F)nc(N3CCCCC3)n2)c1,15.9
14,Cc1ccc(NC(=O)C2CC2c2ccccc2)c([N+](=O)[O-])c1 (stereo not drawn),11.8
15,CSC(=Nc1ccc(Cl)cc1)N[n+]1ccccc1.[I-],-10.3
16,CCCc1cc(=O)c2ccc(OCC(C)=O)cc2o1,2.43
17,CC(C)OCCCNC(=O)CN1CCN(Cc2ccc(Cl)cc2)C1=O,11.4
18,CC(C)(O)C(O)COc1c2ccoc2cc2oc(=O)ccc12 (stereo not drawn),14.9
19,O=C(CCC1CCCCC1)NCCN1CCOCC1,10.3
20,CCOC(=O)c1cn(Cc2ccc(Br)cc2)nn1,-0.88
21,O=C(/C(=N\O)n1cncn1)c1ccc(Br)cc1Br,-20.7
22,O=C(NCc1cccs1)C1CCN(S(=O)(=O)c2cccc3nsnc23)CC1,-3.12

row,SMILES,"hERG current change (%, negative = inhibition) at 1uM [%]"
1,O=S(=O)(c1cccc2cccnc12)N1CCOCC1,7.37
2,CCOC(=O)C1=C(C)N(C)C(=O)NC1c1cc2c(cc1Br)OCO2 (stereo not drawn),0.604
3,CC(C)OC(=O)c1ccc(NC(=S)NC(=O)c2cncc(Br)c2)cc1,5.11
4,CN(CC(=O)Nc1ccccc1C(F)(F)F)C(=O)COc1ccccc1Cc1ccccc1,10.3
5,Cc1onc(-c2c(F)cccc2Cl)c1C(=O)N(C)CC(=O)Nc1cccc(F)c1,9.79
6,CCOC(=O)N1CCC(Nc2c(NCCN3CCN(c4ccccc4F)CC3)c(=O)c2=O)CC1,2.59
7,CCCN(CCC)C(=O)CC(c1ccccc1)c1ccco1 (stereo not drawn),2.97
8,CC(C)CCc1noc(CN2CCC(CCN3CCCC3=O)CC2)n1,11.4
9,CCCN(Cc1cc2cc(C)ccc2[nH]c1=O)S(C)(=O)=O,16.6
10,COc1ccccc1/C=N\Nc1ccccc1[N+](=O)[O-],19.3
11,CCOc1ccc(N2C(=O)CN(C)C2=S)cc1,15
12,Cc1ccc(C2c3[nH]c4ccccc4c3C[C@H]3C(=O)N(c4ccccc4C(=O)NCCN4CCOCC4)C(=O)N23)cc1 (stereo partly drawn),0.793
13,CCN(CC)CC#CC(OC)(c1ccccc1)c1ccccc1.Cl,-0.209
14,CC(Oc1cccnc1[N+](=O)[O-])C(=O)Nc1ccc(F)cc1 (stereo not drawn),3.34
15,O=C(CSc1ccc2nnc(CCNC(=O)c3ccccc3)n2n1)NCc1ccccc1,5.29
16,COC(=O)c1c(-c2ccccc2Cl)noc1/C=C/N(C)C,5.41
17,Nc1nc(Nc2ccccc2)nc(NCCO)c1[N+](=O)[O-],11.4
18,COc1ccc(-c2cc(C(=O)N3CCN(c4ncccn4)CC3)c3ccccc3n2)cc1OC,7.94
19,Cc1cc(C)c2c(n1)SCC(=O)N2CC(=O)Nc1c(C)cccc1C,12.9
20,Cc1ccccc1/C=N/NC(=O)CSc1nc2ccccc2o1,5.15
21,C/C(=N\n1cnnc1)c1ccccc1,15.2
22,N#C/C(=C/c1ccc(F)cc1)c1nc(CCN2C(=O)c3ccccc3C2=O)cs1,-5.22

row,SMILES,"hERG current change (%, negative = inhibition) at 1uM [%]"
1,COc1ccc(C2Nc3ccc(Br)cc3C(c3ccccc3)N2CC(=O)O)cc1 (stereo not drawn),17.8
2,CCOC(=O)C1(CCOc2ccccc2)CCN(Cc2ccc(OC)c(COC)c2)CC1,-77.3
3,N#Cc1cc(C(=O)c2ccccc2O)cn(-c2nccs2)c1=O,19.6
4,CCn1c(SCC(O)c2ccccc2)nnc1-c1ccccc1 (stereo not drawn),5.94
5,COC(=O)c1cccc(N(CC(=O)NCC2CCCO2)C(=O)CCC(=O)Nc2cc(C)on2)c1 (stereo not drawn),20.7
6,O=C(Nc1ccc(S(=O)(=O)N2CCc3ccccc3C2)cc1)C1CCCO1 (stereo not drawn),-0.248
7,C/C(=N/NC(=O)CN1CCN(S(=O)(=O)c2ccc(Br)cc2)CC1)c1ccncc1,-44.3
8,CCOC(=O)/C(=N\Nc1ccc(Cl)cc1)Sc1nnc(-c2ccc(OC)cc2)n1C,9.25
9,O=C(NC1CCCC1)C(c1ccccn1)N(C(=O)c1csnn1)c1ccccc1F (stereo not drawn),8.28
10,Cn1cc(C(=O)OCC(=O)NC2CCCCC2)c2ccccc21,20.6
11,CN(c1ccccc1)S(=O)(=O)c1cccc(C(=O)NCc2ccccc2)c1,6.18
12,CN=C(NC(=O)Nc1c(C)cccc1C)NC(=O)Nc1c(C)cccc1C,6.57
13,CCn1c(C)nc2cc(C(=O)NNC(=S)Nc3ccc(F)cc3)ccc21,16.8
14,COc1ccc(/C=N/NC(=O)CN2CCCCCCC2)c(C)c1C,5.36
15,O=C(NCCc1ccccc1)C1CCN(C2CCN(C(=O)CC3=CCCCC3)CC2)CC1,-0.152
16,Cc1ccc(-c2cc(C(=O)Nc3ccc(S(=O)(=O)Nc4nccs4)cc3)c3ccccc3n2)c(C)c1,3.81
17,O=C1c2ccccc2C(Nc2ccc3c(c2)OCCO3)N1c1ccc(Cl)cn1 (stereo not drawn),7.36
18,Cc1ccc(S(=O)(=O)N(C)C)cc1NC(=O)COC(=O)COc1ccc2c(c1)CCC2,6.77
19,COc1ccccc1CNC(=O)Cn1cnc2ccccc2c1=O,9.15
20,O=C(c1cc2cc(F)ccc2[nH]1)N1CCCC(Nc2ccc(F)cc2)C1 (stereo not drawn),9.51
21,CCc1cc(C(=O)N2CCN(c3ncccn3)CC2)sc1C,-3.33
22,CCCCN(C)Cc1c(O)ccc2c(-c3ccccc3)cc(=O)oc12,-4.52

row,SMILES,"hERG current change (%, negative = inhibition) at 1uM [%]"
1,Cc1c(C(=O)N(Cc2ccncc2)CC2CCCO2)oc2c(F)cccc12 (stereo not drawn),10.7
2,COc1ccc(C2N(S(=O)(=O)c3ccccc3)CCN2S(=O)(=O)c2ccc(C)cc2)cc1 (stereo not drawn),5.23
3,O=C(c1cnc(Cl)c(Cl)c1)N1CCC(Cc2ccccc2)CC1,7.05
4,C[C@H](NS(=O)(=O)c1ccc(Cl)c(Cl)c1)C(=O)OCc1cc(=O)n2cc(Br)ccc2n1,2.28
5,Cc1nc2cc(NC(=O)c3ccc(N4C(=O)CCC4=O)cc3)ccc2s1,-3.34
6,COC(=O)c1cc(C#N)c(Oc2ccccc2)nc1C,-7.29
7,NC(=O)COc1c(-c2ccc(Br)o2)oc2ccccc2c1=O,12.8
8,CN(CC(=O)Nc1ccc(F)c(F)c1F)C(=O)CCN1C(=O)C2CCCCC2C1=O (stereo not drawn),3.68
9,O=C1NC(=O)C(CCc2ccncc2)(CCc2ccccn2)C(=O)N1c1ccc(Br)cc1 (stereo not drawn),-47.3
10,CN(C)/C=C1\N=C(c2ccc(Cl)cc2Cl)OC1=O,5.34
11,Cn1c(=O)n(Cc2ccc(F)cc2)c(=O)c2c1nc1n2CCCN1Cc1ccccc1,3.85
12,N#Cc1c(-c2ccco2)cc(C2CC2)nc1N,1.08
13,CCn1cc(C(=O)NCc2cccc(F)c2)c(=O)c2cc(F)c(N3CCN(C(=O)c4ccco4)CC3)cc21,3.33
14,Cc1noc(C)c1COc1cccc(C(=O)Nc2ccc(C#N)cc2)c1,1.15
15,Cc1ccc2[nH]c3c(=O)n(N)c(=O)[nH]c3c2c1,14.6
16,Cc1ccc(Nc2c([N+](=O)[O-])ccc3c2=NC2(CCCCC2)N=3)cc1,9.22
17,Cc1ccc(C(=O)NCC(=O)OCC(=O)Nc2cc(S(=O)(=O)N3CCOCC3)ccc2C)cc1,8.44
18,COc1ccc(S(=O)(=O)N2Cc3ccccc3CC2C(=O)N2CCOCC2)cc1OC (stereo not drawn),-18.6
19,N#CC(Br)Br,14.5
20,Cc1ccc(NC(=O)c2cnccn2)cc1,13.6
21,COCCCn1c(=O)c2sccc2n(Cc2cccc(F)c2)c1=O,18.7
